{"source": "the supplement of paper PMC8728848", "assay_in_all_cases": "glycan array binding signal (z-score within array); higher = stronger binding", "conditions_in_all_cases": "glycan notation: IUPAC condensed, linker removed", "key": {"[1]": {"target": "Gal(b1-4)GlcNAc(b1-3)Gal(b1-4)GlcNAc(b1-3)[Gal(b1-4)GlcNAc(b1-3)Gal(b1-4)GlcNAc(b1-6)]GalNAc", "method_in_brief": "(§1)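 From the Consortium for Functional Glycomics database, 3228 arrays were curated, keeping only those whose protein sequence was available. Binding is given as a within-array Z-score averaged across arrays sharing a protein sequence and across linkers. Negative Z-scores can be read as non-binding.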"}, "[2]": {"target": "Gal(b1-4)GlcNAc(b1-3)Gal(b1-4)GlcNAc(b1-6)[Gal(b1-3)]GalNAc", "method_in_brief": "as §1"}, "[3]": {"target": "Gal(b1-4)GlcNAc(b1-3)Gal(b1-4)[Fuc(a1-3)]GlcNAc(b1-3)Gal(b1-4)[Fuc(a1-3)]GlcNAc", "method_in_brief": "as §1"}, "[4]": {"target": "Gal(b1-4)GlcNAc(b1-3)GalNAc", "method_in_brief": "as §1"}, "[5]": {"target": "Gal(b1-4)GlcNAc(b1-3)[Fuc(a1-3)GlcNAc(b1-6)]Gal(b1-4)Glc", "method_in_brief": "as §1"}, "[6]": {"target": "Gal(b1-4)GlcNAc(b1-3)[Gal(b1-4)GlcNAc(b1-6)]Gal(b1-4)GlcNAc", "method_in_brief": "as §1"}, "[7]": {"target": "Gal(b1-4)GlcNAc(b1-3)[GlcNAc(b1-6)]Gal(b1-4)GlcNAc", "method_in_brief": "as §1"}, "[8]": {"target": "Gal(b1-4)GlcNAc(b1-6)Gal(b1-4)GlcNAc", "method_in_brief": "as §1"}, "[9]": {"target": "Gal(b1-4)GlcNAc(b1-6)GalNAc", "method_in_brief": "as §1"}, "[10]": {"target": "Gal(b1-4)GlcNAc(b1-6)[Gal(b1-3)]GalNAc", "method_in_brief": "as §1"}, "[11]": {"target": "Gal(b1-4)GlcNAc(b1-6)[Gal(b1-4)GlcNAc(b1-3)]GalNAc", "method_in_brief": "as §1"}, "Gal(b1-4)GlcNAc6P": {"target": "Gal(b1-4)GlcNAc6P", "method_in_brief": "as §1"}, "Gal(b1-6)Gal": {"target": "Gal(b1-6)Gal", "method_in_brief": "as §1"}, "Gal3S(b1-3)GalNAc": {"target": "Gal3S(b1-3)GalNAc", "method_in_brief": "as §1"}, "Gal3S(b1-3)GlcNAc": {"target": "Gal3S(b1-3)GlcNAc", "method_in_brief": "as §1"}, "[12]": {"target": "Gal3S(b1-3)[Fuc(a1-4)]GlcNAc", "method_in_brief": "as §1"}, "Gal3S(b1-4)Glc": {"target": "Gal3S(b1-4)Glc", "method_in_brief": "as §1"}, "Gal3S(b1-4)Glc6S": {"target": "Gal3S(b1-4)Glc6S", "method_in_brief": "as §1"}, "Gal3S(b1-4)GlcNAc": {"target": "Gal3S(b1-4)GlcNAc", "method_in_brief": "as §1"}, "[13]": {"target": "Gal3S(b1-4)[Fuc(a1-3)]Glc6S", "method_in_brief": "as §1"}, "[14]": {"target": "Gal3S(b1-4)[Fuc(a1-3)]GlcNAc", "method_in_brief": "as §1"}, "[15]": {"target": "Gal3S(b1-4)[Fuc(a1-3)]GlcNAc6S", "method_in_brief": "as §1"}, "Gal3S4S(b1-4)GlcNAc": {"target": "Gal3S4S(b1-4)GlcNAc", "method_in_brief": "as §1"}, "Gal3S6S(b1-4)GlcNAc": {"target": "Gal3S6S(b1-4)GlcNAc", "method_in_brief": "as §1"}, "Gal3S6S(b1-4)GlcNAc6S": {"target": "Gal3S6S(b1-4)GlcNAc6S", "method_in_brief": "as §1"}, "Gal4S(b1-4)GlcNAc": {"target": "Gal4S(b1-4)GlcNAc", "method_in_brief": "as §1"}, "Gal4S6S(b1-4)GlcNAc": {"target": "Gal4S6S(b1-4)GlcNAc", "method_in_brief": "as §1"}, "Gal6P(b1-4)GlcNAc": {"target": "Gal6P(b1-4)GlcNAc", "method_in_brief": "as §1"}, "Gal6S(b1-3)GlcNAc": {"target": "Gal6S(b1-3)GlcNAc", "method_in_brief": "as §1"}, "Gal6S(b1-3)GlcNAc6S": {"target": "Gal6S(b1-3)GlcNAc6S", "method_in_brief": "as §1"}, "Gal6S(b1-4)Glc": {"target": "Gal6S(b1-4)Glc", "method_in_brief": "as §1"}, "Gal6S(b1-4)Glc6S": {"target": "Gal6S(b1-4)Glc6S", "method_in_brief": "as §1"}, "Gal6S(b1-4)GlcNAc": {"target": "Gal6S(b1-4)GlcNAc", "method_in_brief": "as §1"}, "Gal6S(b1-4)GlcNAc6S": {"target": "Gal6S(b1-4)GlcNAc6S", "method_in_brief": "as §1"}, "GalNAc(a1-3)Gal": {"target": "GalNAc(a1-3)Gal", "method_in_brief": "as §1"}, "GalNAc(a1-3)GalNAc": {"target": "GalNAc(a1-3)GalNAc", "method_in_brief": "as §1"}, "[16]": {"target": "GalNAc(a1-3)GalNAc(b1-3)Gal(a1-4)Gal(b1-4)Glc", "method_in_brief": "as §1"}, "[17]": {"target": "GalNAc(a1-3)GalNAc(b1-3)Gal(a1-4)Gal(b1-4)GlcNAc", "method_in_brief": "as §1"}, "GalNAc(b1-3)Gal": {"target": "GalNAc(b1-3)Gal", "method_in_brief": "as §1"}, "[18]": {"target": "GalNAc(b1-3)Gal(a1-4)Gal(b1-4)GlcNAc", "method_in_brief": "as §1"}, "[19]": {"target": "GalNAc(b1-3)Gal(a1-4)Gal(b1-4)GlcNAc(b1-3)Gal(b1-4)Glc", "method_in_brief": "as §1"}, "[20]": {"target": "GalNAc(b1-3)Gal(a1-6)Gal(b1-4)Glc", "method_in_brief": "as §1"}, "GalNAc(b1-3)GalNAc": {"target": "GalNAc(b1-3)GalNAc", "method_in_brief": "as §1"}, "GalNAc(b1-3)GlcNAc": {"target": "GalNAc(b1-3)GlcNAc", "method_in_brief": "as §1"}, "GalNAc(b1-4)Gal(b1-4)Glc": {"target": "GalNAc(b1-4)Gal(b1-4)Glc", "method_in_brief": "as §1"}}, "note": "The list shows a part of the results."}
{"binder": "CGL (Crenomytilus grayanus), H2FH31 (protein) MTTFLIKHKASGKFLHPYGGSSNPANNTKLVLHSDIHERMYFQFDVVDERWGYIKHVASGKIVHPYGGQANPPNETNMVLHQDRHDRALFAMDFFNDNIMHKGGKYIHPKGGSPNPPNNTETVIHGDKHAAMEFIFVSPKNKDKRVLVYA", "values": [{"measurement": "glycan array binding signal (z-score)", "setting": "[1]", "result": 0.263}, {"measurement": "glycan array binding signal (z-score)", "setting": "[2]", "result": -0.149}, {"measurement": "glycan array binding signal (z-score)", "setting": "[3]", "result": 0.063}, {"measurement": "glycan array binding signal (z-score)", "setting": "[4]", "result": -0.073}, {"measurement": "glycan array binding signal (z-score)", "setting": "[5]", "result": -0.112}, {"measurement": "glycan array binding signal (z-score)", "setting": "[6]", "result": 2.53}, {"measurement": "glycan array binding signal (z-score)", "setting": "[7]", "result": 0.412}, {"measurement": "glycan array binding signal (z-score)", "setting": "[8]", "result": -0.019}, {"measurement": "glycan array binding signal (z-score)", "setting": "[9]", "result": 0.026}, {"measurement": "glycan array binding signal (z-score)", "setting": "[10]", "result": 0.099}, {"measurement": "glycan array binding signal (z-score)", "setting": "[11]", "result": 0.592}, {"measurement": "glycan array binding signal (z-score)", "setting": "Gal(b1-4)GlcNAc6P", "result": 0.118}, {"measurement": "glycan array binding signal (z-score)", "setting": "Gal(b1-6)Gal", "result": -0.324}, {"measurement": "glycan array binding signal (z-score)", "setting": "Gal3S(b1-3)GalNAc", "result": -0.242}, {"measurement": "glycan array binding signal (z-score)", "setting": "Gal3S(b1-3)GlcNAc", "result": -0.32}, {"measurement": "glycan array binding signal (z-score)", "setting": "[12]", "result": -0.33}, {"measurement": "glycan array binding signal (z-score)", "setting": "Gal3S(b1-4)Glc", "result": -0.326}, {"measurement": "glycan array binding signal (z-score)", "setting": "Gal3S(b1-4)Glc6S", "result": -0.298}, {"measurement": "glycan array binding signal (z-score)", "setting": "Gal3S(b1-4)GlcNAc", "result": -0.25}, {"measurement": "glycan array binding signal (z-score)", "setting": "[13]", "result": -0.298}, {"measurement": "glycan array binding signal (z-score)", "setting": "[14]", "result": -0.2}, {"measurement": "glycan array binding signal (z-score)", "setting": "[15]", "result": -0.323}, {"measurement": "glycan array binding signal (z-score)", "setting": "Gal3S4S(b1-4)GlcNAc", "result": -0.363}, {"measurement": "glycan array binding signal (z-score)", "setting": "Gal3S6S(b1-4)GlcNAc", "result": -0.3}, {"measurement": "glycan array binding signal (z-score)", "setting": "Gal3S6S(b1-4)GlcNAc6S", "result": -0.344}, {"measurement": "glycan array binding signal (z-score)", "setting": "Gal4S(b1-4)GlcNAc", "result": -0.357}, {"measurement": "glycan array binding signal (z-score)", "setting": "Gal4S6S(b1-4)GlcNAc", "result": -0.343}, {"measurement": "glycan array binding signal (z-score)", "setting": "Gal6P(b1-4)GlcNAc", "result": -0.329}, {"measurement": "glycan array binding signal (z-score)", "setting": "Gal6S(b1-3)GlcNAc", "result": -0.351}, {"measurement": "glycan array binding signal (z-score)", "setting": "Gal6S(b1-3)GlcNAc6S", "result": -0.433}, {"measurement": "glycan array binding signal (z-score)", "setting": "Gal6S(b1-4)Glc", "result": -0.407}, {"measurement": "glycan array binding signal (z-score)", "setting": "Gal6S(b1-4)Glc6S", "result": -0.357}, {"measurement": "glycan array binding signal (z-score)", "setting": "Gal6S(b1-4)GlcNAc", "result": -0.429}, {"measurement": "glycan array binding signal (z-score)", "setting": "Gal6S(b1-4)GlcNAc6S", "result": -0.383}, {"measurement": "glycan array binding signal (z-score)", "setting": "GalNAc(a1-3)Gal", "result": 2.28}, {"measurement": "glycan array binding signal (z-score)", "setting": "GalNAc(a1-3)GalNAc", "result": -0.076}, {"measurement": "glycan array binding signal (z-score)", "setting": "[16]", "result": -0.289}, {"measurement": "glycan array binding signal (z-score)", "setting": "[17]", "result": -0.172}, {"measurement": "glycan array binding signal (z-score)", "setting": "GalNAc(b1-3)Gal", "result": -0.191}, {"measurement": "glycan array binding signal (z-score)", "setting": "[18]", "result": -0.214}, {"measurement": "glycan array binding signal (z-score)", "setting": "[19]", "result": 0.074}, {"measurement": "glycan array binding signal (z-score)", "setting": "[20]", "result": -0.079}, {"measurement": "glycan array binding signal (z-score)", "setting": "GalNAc(b1-3)GalNAc", "result": -0.198}, {"measurement": "glycan array binding signal (z-score)", "setting": "GalNAc(b1-3)GlcNAc", "result": 0.747}, {"measurement": "glycan array binding signal (z-score)", "setting": "GalNAc(b1-4)Gal(b1-4)Glc", "result": -0.312}]}
